# In PubChem BioAssay AID1508642 (National Center for Advancing Translational Sciences (NCATS), 2021):
# Among all 43,000 compounds or so, about 200 (0.47%) were called active. Roughly 12% stayed inconclusive and do not appear here. Calls follow the shape of the dose curve; as a rule, active = well fitted cell-killing curve with a large enough effect; inconclusive = small, poorly fitted or top-dose-only effect, or effect the other way; inactive = flat fitted curve, though single readings scatter. This is one part of the list.
# Test: Cell viability qHTS assay in S16 Pmp22-F2sN cells; also: nearly all actives have a fitted effect of over 65% in size
# Conditions: S16 Pmp22-F2sN Schwann cells (luciferase reporters placed in the Pmp22 gene) viability, CellTiter-Glo, 24 h; series mostly up to 57.5 µM; activity change, negative = cytotoxicity: at the top concentration
# In short: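 CellTiter-Glo counter-screen, qHTS, 1536-well. Cells: S16(c9) Pmp22-F2sN, 500-1,000/well in DMEM + 10% FBS. Cpd 23 nL pin transfer, 24 h, 37C/5% CO2. Read: luminescence, CCD imager.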
# % is scaled to controls: 0 for no effect and ±100 for the full control effect; potency is read from the fitted curve at half-maximal effect.
SMILES,"activity change, negative = cytotoxicity",Potency
Cc1ccc2oc(-c3ccc(C)c(NC(=O)c4ccc(-c5ccccc5[N+](=O)[O-])o4)c3)nc2c1,inactive: -5.87%,
CCOc1ccc(S(=O)(=O)N(CC(=O)Nc2ccc3c(c2)OCO3)c2ccc(C)cc2)cc1,inactive: -16.3%,
CCn1cc(S(=O)(=O)c2ccc(Cl)cc2)c(=O)c2cc(F)c(N3CCOCC3)cc21,inactive: -20.7%,
CCN(CC)S(=O)(=O)c1ccc(N2CCCCS2(=O)=O)cc1,inactive: 2.11%,
Cc1ccc(CNC(=O)CN2C(=O)CCc3cc(S(=O)(=O)N4CCCCC4)ccc32)cc1,inactive: 22.9%,
CC(CNC(=O)C1CCN(C(=O)c2cc3sccc3n2C)CC1)c1ccccc1 (stereo unspecified),inactive: -3.92%,
COc1ccccc1NC(=O)Cn1ccn(-c2cc(C)cc(C)c2)c(=O)c1=O,inactive: 4.27%,
Cn1nc(C(=O)NCc2ccccc2)c2c1-c1ccccc1S(=O)(=O)C2,inactive: -6.44%,
CCOc1cccc(NC(=O)C2CC(=O)N(C)C(=Nc3ccc(OC)cc3)S2)c1 (stereo unspecified),inactive: 8.52%,
CCOc1ccccc1Oc1nc(C)nc2c1oc1ccccc12,inactive: -19.4%,
Clc1ccccc1CSc1nc(NCCc2ccccc2)c2ccccc2n1,inactive: -21.9%,
N#Cc1c(C(F)(F)F)cc(-c2cccs2)nc1SCc1ccccc1F,inactive: 4.99%,
CCOC(=O)C1CCN(c2ncnc3c2c(-c2ccccc2)cn3-c2ccc(Cl)cc2)CC1,inactive: 16.1%,
CCOC(=O)c1c(C)[nH]c(C)c1S(=O)(=O)NCC(=O)NCc1ccccc1C,inactive: 0.993%,
CCC(=O)N1c2ccccc2CC1C(=O)N1CCN(c2ccccc2F)CC1 (stereo unspecified),inactive: 3.77%,
Cc1ccc(NC(=O)Cn2c(=O)n(CCCCC(=O)NCc3ccc4c(c3)OCO4)c(=O)c3ccccc32)cc1,inactive: 22.6%,
CCN(Cc1ccccc1)C(=O)Cn1ncc2c(=O)oc3ccc(C)cc3c21,inactive: -1.23%,
Cc1cccc(N2CCN(C(=O)c3ccc4c(c3)N(Cc3cccc(Cl)c3)C(=O)c3ccccc3S4(=O)=O)CC2)c1C,inactive: -5.59%,
CCOc1ccc(NC(=O)CCc2nnc3n(C)c(=O)c4sccc4n23)cc1,inactive: 17.5%,
O=C(CSc1ncc2c(n1)-c1ccccc1N(Cc1ccc(Cl)cc1)S2(=O)=O)c1ccccc1,inactive: 3.92%,
Cc1cccc(C(=O)NNc2ncnc3c2cnn3-c2ccc(C)c(Cl)c2)c1,inactive: 10.5%,
CC(CNC(=O)CCCn1c(=O)c2cccn2c2ccc(F)cc21)c1ccccc1 (stereo unspecified),inactive: -14.1%,
Cc1ccc(-c2nc(CS(=O)CC(=O)NCCc3ccc(Cl)cc3)c(C)o2)cc1 (stereo unspecified),inactive: 7.55%,
COc1cc(NC(=O)C2Cc3ccccc3N2C(=O)c2ccccc2)cc(OC)c1 (stereo unspecified),inactive: -16.8%,

SMILES,"activity change, negative = cytotoxicity",Potency
COc1ccc(N2CCN(c3ncnc4c3nnn4C)CC2)cc1,inactive: -18.8%,
COC(=O)c1cc2sccc2n1CC(=O)Nc1cc(Cl)ccc1OC,inactive: -25.1%,
CCOc1ccc(-n2nc(CO)c(C(=O)NCC(C)O)n2)cc1 (stereo unspecified),inactive: -4.69%,
COc1ccc(OCCn2nnc3sc4c(c3c2=O)CCCC4)cc1,inactive: -7.4%,
COc1ccc2c(CNCCc3cccs3)c(C(=O)O)n(Cc3cccc(F)c3)c2c1,inactive: -6.97%,
COc1cc(OC)c(NC(=O)C2CCN(S(=O)(=O)c3ccc4c(c3)oc(=O)n4C)CC2)cc1Cl,inactive: 12%,
Cc1ccc(CNC(=O)CN2CCN(Cc3ccc(F)cc3Cl)C2=O)cc1,inactive: 16.7%,
CCc1ccc(S(=O)(=O)c2cn(CC)c3cc(N4CCCCC4)c(F)cc3c2=O)cc1,inactive: 3.76%,
COc1ccc2nc(NC(=O)c3cc(=O)c4cc(C)cc(C)c4o3)sc2c1,inactive: 5.94%,
COc1ccc(OC)c(NC(=O)CCNS(=O)(=O)c2ccc3c(c2)oc(=O)n3C)c1,inactive: 6.61%,
Nc1c(C(=O)NCc2ccc(Cl)cc2)sc2nc(-c3ccc(F)cc3)ccc12,inactive: 2.35%,
CCc1ccc(Nc2sc(C(=O)c3ccc(F)cc3)c(N)c2S(=O)(=O)c2ccccc2)cc1,inactive: -7.93%,
Cc1ccc(-n2ncc3c(NC4CCCCC4)ncnc32)cc1Cl,inactive: -25.6%,
COc1ccc(CNC(=O)CCCn2nc(C)c3c(C)n(-c4ccc(C)cc4)nc3c2=O)cc1OC,inactive: -7.43%,
CCOc1cc(CNC(=O)c2ccc3c(c2)N(C)C(=O)C2CCCCN32)ccc1OC (stereo unspecified),inactive: 3.71%,
O=C(CNC(=O)c1ccc(F)cc1)OCc1cc(=O)n2nc(C3CCCCC3)sc2n1,inactive: 12.4%,
COc1ccc(OC)c(NC(=O)CN2CCCN(Cc3ccccc3Cl)S2(=O)=O)c1,inactive: -3.94%,
O=C(CN1C(=O)COc2ccc(S(=O)(=O)N3CCCCCC3)cc21)N1CCN(c2ccccc2F)CC1,inactive: 22.2%,
CCOc1ccc(CNC(=O)CCS(=O)(=O)c2cc3c4c(c2)CCN4C(=O)CC3)cc1OC,inactive: -22.4%,
O=C(c1ccc2c(Cl)c3c(nc2c1)CCCC3)N1CCN(c2cccc(C(F)(F)F)c2)CC1,inactive: 2.08%,
CCN(c1ccccc1)c1nnc(NC(=O)Nc2ccc(Br)c(C)c2)s1,inactive: 0.597%,
O=C(CSc1nccn1Cc1ccco1)Nc1cc(C(F)(F)F)ccc1Cl,inactive: -10.6%,
CCN1CCN(C(c2ccccc2Cl)c2c(O)cc(C)n(Cc3ccco3)c2=O)CC1 (stereo unspecified),inactive: -1.4%,
Cn1c(=O)c2c(ncn2Cc2ccc(Cl)cc2)n(C)c1=O,inactive: -9.53%,

SMILES,"activity change, negative = cytotoxicity",Potency
O=C(Cn1c(=O)n2nc(-c3cccc(F)c3)nc2c2ccccc21)N1CCN(c2ccc(F)cc2)CC1,inactive: -2.1%,
COc1ccccc1CNC(=O)CCn1cnc2ccccc2c1=O,inactive: -25.1%,
O=C(NC1CC(=O)N(c2ccc(F)cc2)C1)c1ccc2c(c1)OCO2 (stereo unspecified),inactive: 3.49%,
Cc1cccc(N2CCN(C(=O)c3noc4c3CCCCC4)CC2)c1C,inactive: -12.3%,
Cc1cc(C(=O)C(=O)Nc2nncs2)c(C)n1-c1ccc(Cl)cc1,inactive: -12.3%,
COc1ccccc1NC(=O)c1cn(-c2ccccc2)nc1-c1ccccc1,inactive: -8.56%,
CC(NC(=O)c1ccc(F)cc1)c1nc2ccccc2[nH]1 (stereo unspecified),inactive: 7.75%,
CCc1ccc(NC(=O)Cn2c(=O)n(-c3cc(OC)c(OC)c(OC)c3)c(=O)c3ccccc32)cc1,inactive: -0.0103%,
COc1ccc(N2CCN(C(=O)CNS(=O)(=O)c3ccc(Br)s3)CC2)cc1,inactive: 5.79%,
N#Cc1nc(/C=C/c2ccc(F)cc2)oc1NCc1ccc(F)cc1,inactive: 1.04%,
Oc1ccc(-c2nc3ccc(Cl)cn3c2Nc2ccc3c(c2)OCO3)cc1,inactive: 18.4%,
Cc1ccc(-n2c(=O)c3c(C)c(C)sc3n(Cc3ccc(F)cc3Cl)c2=O)cc1C,inactive: -0.535%,
COc1ccc(CCNC(=O)Cc2c(C)c3cc4c(C)coc4cc3oc2=O)cc1OC,inactive: 20.1%,
COc1ccc(N(C(=O)c2ccccc2)S(=O)(=O)c2ccc3c(c2)n(C)c(=O)n3C)cc1,inactive: -3.89%,
O=C(NCc1ccc(Cl)cc1)C1CCN(S(=O)(=O)c2ccccc2)CC1,inactive: -24%,
O=C1CC(=O)Nc2cc(S(=O)(=O)N3CCOc4ccc(Cl)cc43)ccc2N1,inactive: -15.4%,
Cc1cc(C)c(NS(=O)(=O)c2ccc(-c3coc(C)n3)cc2)c(C)c1,inactive: 3.02%,
COc1cc(C(=O)NCc2nc3cccnc3n2Cc2ccc(C)cc2)cc(OC)c1OC,inactive: 0.0312%,
CC(=O)c1ccc(NC(=O)Cn2ncc3c4ccccc4n(Cc4ccccc4)c3c2=O)cc1,inactive: 16.3%,
CCc1ccc(S(=O)(=O)NCc2nc3cccnc3n2Cc2cccc(OC)c2)cc1,inactive: 2.28%,
CCCCCn1c(CNC(=O)c2ccccc2)nc2ccccc21,inactive: -0.479%,
CCOc1ccc(NC(=O)Cn2c(=O)n(CCCCC(=O)NCc3ccc4c(c3)OCO4)c(=O)c3ccccc32)cc1,inactive: -17%,
CCN(CC)c1ccc(-n2nc3cc(C)c(NC(=O)c4ccccc4C)cc3n2)c(C)c1,inactive: 1.38%,
Cc1cc(C)c(S(=O)(=O)N2CCN(Cc3ccc4c(c3)OCO4)CC2)cc1C,inactive: -2.97%,

SMILES,"activity change, negative = cytotoxicity",Potency
Cc1c(Cl)cccc1Nc1nn2c(=O)c3ccc(C(=O)NCCC4=CCCCC4)cc3nc2s1,inactive: -28.1%,
COc1ccc(C2C(C(=O)Nc3ccc(C)cc3C)=C(C)Nc3nc(SCc4cccc(C)c4)nn32)c(OC)c1 (stereo unspecified),inactive: 0.989%,
Cc1ccc(C)c(N(C)C(=O)Cc2c(C(=O)O)[nH]c3ccc(Cl)cc23)c1,inactive: 17.4%,
CC(C)(C)CC(C)(C)c1ccc(OCC(=O)Nc2ccc(S(=O)(=O)Nc3ncccn3)cc2)cc1,inactive: -29.4%,
CC1=C(C(=O)Nc2ccc(C)cc2C)C(c2ccc(Br)cc2)n2ncc(C(=O)Nc3cccc(C)c3)c2N1 (stereo unspecified),inactive: 3.4%,
COc1ccccc1CNC(=O)CSc1nc(=O)[nH]c2c1CCC2,inactive: 7.35%,
COc1ccccc1-c1nn2c(=O)cc(CN3CCN(C(=O)/C=C/c4ccccc4)CC3)nc2s1,inactive: -25.6%,
COc1cccc(CNC(=O)CN2C(=O)N(c3cccc(Cl)c3)S(=O)(=O)c3ccccc32)c1OC,inactive: 14%,
Cc1ccccc1NC(=O)Cn1nnc(C(=O)NCCc2ccccc2)c1N,inactive: 8.83%,
CCc1nn2c(=O)c(S(=O)(=O)Nc3ccc(Br)cc3F)c(C)nc2s1,inactive: 0.976%,
COc1ccc(C2C=C(c3ccc(Br)cc3)Nc3nnnn32)c(OC)c1 (stereo unspecified),inactive: 0.538%,
COc1ccc(Nc2cc(C(=O)NC3CCCC3)c3ccccc3n2)cc1,inactive: -8.97%,
COc1ccccc1CNc1nc2c(S(=O)(=O)c3ccccc3)nnn2c2ccc(Cl)cc12,inactive: -20%,
Cc1ccc(NC(=O)c2c(NC(=O)c3ccccc3Cl)sc3c2CCC3)cc1,inactive: 7.01%,
O=C(CSc1nccn1Cc1ccc(F)cc1)NCc1ccc(F)cc1,inactive: 8.36%,
CN1CCN(C(=O)Cn2ncc3c4ccccc4n(Cc4ccc(Cl)cc4)c3c2=O)CC1,inactive: 4.47%,
Cc1cc(C)c(NC(=O)c2c(C)nn(-c3ccc(F)cc3)c2-n2cccc2)c(C)c1,inactive: 0.0793%,
O=C(CCSCc1ccc(Cl)cc1)NCc1ccc(F)cc1Cl,inactive: 1.62%,
CS(=O)(=O)N1CCc2cc(C(=O)N3CCN(c4ccccc4F)CC3)ccc21,inactive: -13.5%,
CSc1nc(=O)c2c(n1C)NC(=O)CC2c1cc(F)cc(F)c1 (stereo unspecified),inactive: 2.4%,
CC(=O)c1cccc(NC(=O)Cn2nc(C(F)(F)F)c3c2CCC3)c1,inactive: 28%,
NC(=O)c1nn2c(C(F)(F)F)cc(-c3ccc(Br)cc3)nc2c1Cl,,active: 28.2 µM
CC1=C(C(=O)OCc2ccc(C)cc2)C(c2cccc(F)c2F)CC(=O)N1 (stereo unspecified),inactive: 17.3%,
COc1ccc(-c2cc(C(F)(F)F)n3nc(C(=O)Nc4cc(C)ccc4C)cc3n2)cc1,inactive: 4.38%,
